T1: RBFOX1 RRM (Homo sapiens, UniProt Q9NWB1 109-208)
T1 sequence: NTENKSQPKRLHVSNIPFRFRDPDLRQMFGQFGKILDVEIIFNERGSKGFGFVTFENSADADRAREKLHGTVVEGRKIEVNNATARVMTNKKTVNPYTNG

B1: AGAGUAA (DNA:RNA)
RNA: GGGAGACCGGAAUUCAGAUUGUCCAGAGUAAUUAAAUCCCGUCGUAGCCACCA
DNA 1: CAATCTGAATTCCGGTCTCCC
DNA 2: TGGTGGCTACGACGGGATT
B2: UGGCGCU (DNA:RNA)
RNA: B1 RNA with A25U, A27G, G28C, U29G, A30C, A31U
DNA 1: CAATCTGAATTCCGGTCTCCC
DNA 2: TGGTGGCTACGACGGGATT
B3: GUAACGA (DNA:RNA)
RNA: B1 RNA with A25G, G26U, G28A, U29C, A30G
DNA 1: CAATCTGAATTCCGGTCTCCC
DNA 2: TGGTGGCTACGACGGGATT
B4: ACACAGU (DNA:RNA)
RNA: B1 RNA with G26C, G28C, U29A, A30G, A31U
DNA 1: CAATCTGAATTCCGGTCTCCC
DNA 2: TGGTGGCTACGACGGGATT
B5: AAAUGAU (DNA:RNA)
RNA: B1 RNA with G26A, G28U, U29G, A31U
DNA 1: CAATCTGAATTCCGGTCTCCC
DNA 2: TGGTGGCTACGACGGGATT
B6: AUUAAUG (DNA:RNA)
RNA: B1 RNA with G26U, A27U, G28A, U29A, A30U, A31G
DNA 1: CAATCTGAATTCCGGTCTCCC
DNA 2: TGGTGGCTACGACGGGATT
B7: CACGCUU (DNA:RNA)
RNA: B1 RNA with A25C, G26A, A27C, U29C, A30U, A31U
DNA 1: CAATCTGAATTCCGGTCTCCC
DNA 2: TGGTGGCTACGACGGGATT
B8: CGCAGGC (DNA:RNA)
RNA: B1 RNA with A25C, A27C, G28A, U29G, A30G, A31C
DNA 1: CAATCTGAATTCCGGTCTCCC
DNA 2: TGGTGGCTACGACGGGATT
B9: UUCUGUA (DNA:RNA)
RNA: B1 RNA with A25U, G26U, A27C, G28U, U29G, A30U
DNA 1: CAATCTGAATTCCGGTCTCCC
DNA 2: TGGTGGCTACGACGGGATT
B10: UUGCGCU (DNA:RNA)
RNA: GGGAGACCGGAAUUCAGAUUGUCCUUGCGCUUUAAAUCCCGUCGUAGCCACCA
DNA 1: CAATCTGAATTCCGGTCTCCC
DNA 2: TGGTGGCTACGACGGGATT
B11: CAGGCCG (DNA:RNA)
RNA: B10 RNA with U25C, U26A, C28G, G29C, U31G
DNA 1: CAATCTGAATTCCGGTCTCCC
DNA 2: TGGTGGCTACGACGGGATT
B12: GAGGUGA (DNA:RNA)
RNA: B1 RNA with A25G, G26A, A27G, A30G
DNA 1: CAATCTGAATTCCGGTCTCCC
DNA 2: TGGTGGCTACGACGGGATT
B13: AUAGAUC (DNA:RNA)
RNA: B1 RNA with G26U, U29A, A30U, A31C
DNA 1: CAATCTGAATTCCGGTCTCCC
DNA 2: TGGTGGCTACGACGGGATT
B14: GAUUGGC (DNA:RNA)
RNA: B10 RNA with U25G, U26A, G27U, C28U, C30G, U31C
DNA 1: CAATCTGAATTCCGGTCTCCC
DNA 2: TGGTGGCTACGACGGGATT
B15: GCGCUGG (DNA:RNA)
RNA: B10 RNA with U25G, U26C, G29U, C30G, U31G
DNA 1: CAATCTGAATTCCGGTCTCCC
DNA 2: TGGTGGCTACGACGGGATT
B16: UUCGUAA (DNA:RNA)
RNA: B1 RNA with A25U, G26U, A27C
DNA 1: CAATCTGAATTCCGGTCTCCC
DNA 2: TGGTGGCTACGACGGGATT
B17: AAUCGAG (DNA:RNA)
RNA: B1 RNA with G26A, A27U, G28C, U29G, A31G
DNA 1: CAATCTGAATTCCGGTCTCCC
DNA 2: TGGTGGCTACGACGGGATT
B18: CGCUUAA (DNA:RNA)
RNA: B1 RNA with A25C, A27C, G28U
DNA 1: CAATCTGAATTCCGGTCTCCC
DNA 2: TGGTGGCTACGACGGGATT
B19: CAAGCGG (DNA:RNA)
RNA: B1 RNA with A25C, G26A, U29C, A30G, A31G
DNA 1: CAATCTGAATTCCGGTCTCCC
DNA 2: TGGTGGCTACGACGGGATT
B20: AAAGCCC (DNA:RNA)
RNA: B1 RNA with G26A, U29C, A30C, A31C
DNA 1: CAATCTGAATTCCGGTCTCCC
DNA 2: TGGTGGCTACGACGGGATT
B21: CGAAAAU (DNA:RNA)
RNA: B1 RNA with A25C, G28A, U29A, A31U
DNA 1: CAATCTGAATTCCGGTCTCCC
DNA 2: TGGTGGCTACGACGGGATT
B22: GGUUAGU (DNA:RNA)
RNA: B1 RNA with A25G, A27U, G28U, U29A, A30G, A31U
DNA 1: CAATCTGAATTCCGGTCTCCC
DNA 2: TGGTGGCTACGACGGGATT
B23: AUUUUGU (DNA:RNA)
RNA: B1 RNA with G26U, A27U, G28U, A30G, A31U
DNA 1: CAATCTGAATTCCGGTCTCCC
DNA 2: TGGTGGCTACGACGGGATT
B24: UACUUUU (DNA:RNA)
RNA: B10 RNA with U26A, G27C, C28U, G29U, C30U
DNA 1: CAATCTGAATTCCGGTCTCCC
DNA 2: TGGTGGCTACGACGGGATT
B25: UUAGCAG (DNA:RNA)
RNA: B1 RNA with A25U, G26U, U29C, A31G
DNA 1: CAATCTGAATTCCGGTCTCCC
DNA 2: TGGTGGCTACGACGGGATT
B26: GACUUCA (DNA:RNA)
RNA: B1 RNA with A25G, G26A, A27C, G28U, A30C
DNA 1: CAATCTGAATTCCGGTCTCCC
DNA 2: TGGTGGCTACGACGGGATT
B27: UUUAAGG (DNA:RNA)
RNA: B10 RNA with G27U, C28A, G29A, C30G, U31G
DNA 1: CAATCTGAATTCCGGTCTCCC
DNA 2: TGGTGGCTACGACGGGATT
B28: AGCUUAG (DNA:RNA)
RNA: B1 RNA with A27C, G28U, A31G
DNA 1: CAATCTGAATTCCGGTCTCCC
DNA 2: TGGTGGCTACGACGGGATT
B29: AAGGCUG (DNA:RNA)
RNA: B1 RNA with G26A, A27G, U29C, A30U, A31G
DNA 1: CAATCTGAATTCCGGTCTCCC
DNA 2: TGGTGGCTACGACGGGATT
B30: GCUGAUG (DNA:RNA)
RNA: B1 RNA with A25G, G26C, A27U, U29A, A30U, A31G
DNA 1: CAATCTGAATTCCGGTCTCCC
DNA 2: TGGTGGCTACGACGGGATT
B31: UCCUAUC (DNA:RNA)
RNA: B10 RNA with U26C, G27C, C28U, G29A, C30U, U31C
DNA 1: CAATCTGAATTCCGGTCTCCC
DNA 2: TGGTGGCTACGACGGGATT

Substitutions are numbered along the chain they refer to; changes in the protein carry UniProt numbers. The list shows a part of the results.

The target in the test is T1, RBFOX1 RRM. Description: EMSA; HiTS-Eq, 1 nM pool, 10 min; buffer printed only for the single-RNA assays: 10 mM Tris pH 7.5, 150 mM NaCl, 3.4 mM EDTA, 0.001% NP-40, 30 C. The note with it: tags: His6 N-terminal (pET28a); label: 5' 32P. In short, it runs like this: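 These values rest on relative association constants, computed from read-count changes of each RNA species versus the control reaction and normalised to the cognate motif. Reads came from free RNA recovered by 8% native PAGE after purified RbFox RRM (wild type or mutant) at increasing concentrations was equilibrated for 10 min in 50 µL with 1 nM of a 5′-radiolabelled pool with 7 randomized nucleotides and DNA-annealed flanks.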
In the case of B1, the binding signal was 0.00465 KA relative to UGCAUGU.
The value for B2 was 0.0198 KA relative to UGCAUGU.
Take B3: the binding signal was 0.0122 KA relative to UGCAUGU.
Regarding B4, the binding signal is 0.000421 KA relative to UGCAUGU.
The value for B5 was 0.00436 KA relative to UGCAUGU; that for B6 was 0.00405 KA relative to UGCAUGU.
With B7, the binding signal is 0.00679 KA relative to UGCAUGU.
Consider B8, for which the binding signal is 0.015 KA relative to UGCAUGU.
Consider B9, for which the binding signal is 0.00899 KA relative to UGCAUGU.
As to B10, the binding signal is 0.0189 KA relative to UGCAUGU.
As for B11, the binding signal was 0.00997 KA relative to UGCAUGU.
Turning to B12, the binding signal was 0.0193 KA relative to UGCAUGU.
B13: the binding signal was 0.00184 KA relative to UGCAUGU.
On to B14, for which the binding signal was 0.0202 KA relative to UGCAUGU.
In the case of B15, the binding signal was 0.0322 KA relative to UGCAUGU.
As for B16, the figure is 0.00742 KA relative to UGCAUGU; as for B17, 0.00867 KA relative to UGCAUGU.
The value for B18 was 0.0041 KA relative to UGCAUGU; that for B19 was 0.00642 KA relative to UGCAUGU.
The value for B20 was 0.00158 KA relative to UGCAUGU; that for B21 was 0.00237 KA relative to UGCAUGU.
As for B22, the binding signal is 0.0134 KA relative to UGCAUGU.
With B23, the binding signal is 0.0131 KA relative to UGCAUGU.
As for B24, the binding signal is 0.00807 KA relative to UGCAUGU.
The value for B25 was 0.00928 KA relative to UGCAUGU.
Regarding B26, the binding signal was 0.00662 KA relative to UGCAUGU.
The value for B27 was 0.0043 KA relative to UGCAUGU.
Consider B28, for which the binding signal was 0.00861 KA relative to UGCAUGU.
As to B29, the binding signal is 0.0149 KA relative to UGCAUGU.
The value for B30 was 0.0239 KA relative to UGCAUGU; that for B31 was 0.00355 KA relative to UGCAUGU.

The record behind these values is publication PMC9911399, “Two distinct binding modes provide the RNA-binding protein RbFox with extraordinary sequence specificity”.
